Assay results: patent US20210269542A1 (POTENZA THERAPEUTICS, published 2021)

T1: human GITR T43R-Fc (human, UniProt Q9Y5U5 26-162)
T1 construct: also called hGITR-T43R; Human GITR-Fc T43R
T1 chain: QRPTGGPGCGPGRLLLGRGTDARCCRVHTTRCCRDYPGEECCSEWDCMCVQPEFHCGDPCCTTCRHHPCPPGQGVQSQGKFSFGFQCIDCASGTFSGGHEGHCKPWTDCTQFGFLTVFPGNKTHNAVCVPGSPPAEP

T2: cyno GITR-Fc (cynomolgus monkey)
T2 construct: also called cGITR; cynomolgus GITR
T2 chain: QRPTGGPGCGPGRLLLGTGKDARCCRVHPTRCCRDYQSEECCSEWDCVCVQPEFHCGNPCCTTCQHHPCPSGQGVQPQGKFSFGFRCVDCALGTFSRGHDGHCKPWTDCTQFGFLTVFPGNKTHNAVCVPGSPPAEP

T3: human GITR-Fc (human, UniProt Q9Y5U5 26-162)
T3 construct: also called recombinant hGITR; wild type human GITR-Fc
T3 sequence: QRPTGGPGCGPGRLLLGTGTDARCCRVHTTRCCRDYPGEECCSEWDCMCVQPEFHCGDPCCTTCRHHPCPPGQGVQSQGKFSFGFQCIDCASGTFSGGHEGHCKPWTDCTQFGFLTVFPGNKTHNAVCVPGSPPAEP

T4: cynomolgus monkey GITR expressed on HT1080 cells (cynomolgus monkey)
T4 chain: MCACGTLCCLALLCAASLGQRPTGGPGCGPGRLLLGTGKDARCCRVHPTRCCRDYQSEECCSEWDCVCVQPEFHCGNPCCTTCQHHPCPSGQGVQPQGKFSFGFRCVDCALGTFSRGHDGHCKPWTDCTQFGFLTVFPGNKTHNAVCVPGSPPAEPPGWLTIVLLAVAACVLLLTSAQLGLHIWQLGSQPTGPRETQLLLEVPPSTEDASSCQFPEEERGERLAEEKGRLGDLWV

T5: human GITR expressed on cells (human, UniProt Q9Y5U5 26-241)
T5 sequence: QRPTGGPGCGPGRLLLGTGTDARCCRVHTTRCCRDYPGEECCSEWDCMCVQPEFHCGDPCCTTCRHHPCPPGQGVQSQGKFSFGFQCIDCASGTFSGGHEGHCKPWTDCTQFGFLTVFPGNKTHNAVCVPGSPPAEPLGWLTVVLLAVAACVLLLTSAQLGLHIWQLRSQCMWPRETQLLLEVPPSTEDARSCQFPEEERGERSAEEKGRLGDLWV

T6: mouse GITR-Fc (mouse, UniProt O35714 20-153)
T6 construct: also called mGITR
T6 sequence: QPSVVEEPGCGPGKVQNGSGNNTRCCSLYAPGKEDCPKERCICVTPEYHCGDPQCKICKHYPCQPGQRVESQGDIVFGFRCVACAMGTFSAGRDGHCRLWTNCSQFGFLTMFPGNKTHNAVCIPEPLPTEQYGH


Assays:
[1] = biological target: T1, human GITR T43R-Fc; assay: BLI Octet, ABP on AHC sensor, antigen 50-0.78 nM, multi-concentration, n = 1
[2] = biological target: T2, cyno GITR-Fc; assay: BLI Octet, ABP on AHC sensor, antigen 50-0.78 nM, multi-concentration, n = 3
[3] = biological target: T3, human GITR-Fc; assay: as above
[4] = biological target: T4, cynomolgus monkey GITR expressed on …; assay: cell-based or functional assay
[5] = biological target: T5, human GITR expressed on cells; assay: cell-based or functional assay
[6] = biological target: T2, cyno GITR-Fc; assay: BLI Octet, ABP on AHC sensor, 25 nM antigen, single concentration
[7] = biological target: T3, human GITR-Fc; assay: as above
[8] = biological target: T6, mouse GITR-Fc; assay: as above
[9] = biological target: T1, human GITR T43R-Fc; assay: as above
[10] = biological target: T5, human GITR expressed on cells; assay: cell-based or functional assay; remark: listed apart in the source

| Kd [1] | Kd [2] | Kd [3] | % Maximum IL-8 Induction Relative to GITRL in cynomolgus HT1080 [4] | Average EC50 in cynomolgus HT1080 (IL-8 induction) [4] | % Maximum IL-8 Induction Relative to GITRL in human HT1080 [5] | Average EC50 in Human HT1080 (IL-8 induction) [5] | Kd [6] | Kd [7] | binding result [8] | Kd [9] | % Activity Compared to GITRL, Jurkat cells expressing human GITR [10] | EC50, Jurkat cells expressing human GITR [10] | Binder |
| --- | --- | --- | --- | --- | --- | --- | --- | --- | --- | --- | --- | --- | --- |
| 0.073 nM | 1.1 nM | 0.12 nM | 103% | 62 pM | 95% | 107 pM | 1.21 nM | 0.57 nM | no binding (tested: 25 nM) | 0.7 nM | 104% | 0.25 nM | ABP5 (antibody, human IgG4 S228P, kappa, TM format, N-terminal Fab: VH + IgG1 CH1 + GGGGS + VH + IgG4 S228P; heavy chain with or without C-terminal Lys; also called ABPS) heavy: QVQLQESGPGLVKPSETLSLTCAVSGYSISSGAGWGWIRQPPGKGLEWIGLIVHSGSTYYNPSLKSRVTISVDTSKNQFSLKLSSVTAADTAVYYCVLESVRGYGDYGGHHAFDIWGQGTMVTVSSASTKGPSVFPLAPSSKSTSGGTAALGCLVKDYFPEPVTVSWNSGALTSGVHTFPAVLQSSGLYSLSSVVTVPSSSLGTQTYICNVNHKPSNTKVDKRVEPKSCGGGGSQVQLQESGPGLVKPSETLSLTCAVSGYSISSGAGWGWIRQPPGKGLEWIGLIVHSGSTYYNPSLKSRVTISVDTSKNQFSLKLSSVTAADTAVYYCVLESVRGYGDYGGHHAFDIWGQGTMVTVSSASTKGPSVFPLAPCSRSTSESTAALGCLVKDYFPEPVTVSWNSGALTSGVHTFPAVLQSSGLYSLSSVVTVPSSSLGTKTYTCNVDHKPSNTKVDKRV[human IgG4 Fc with S228P (EU numbers) left out] light: DIQMTQSPSSLSASVGDRVTITCRASKSIDSYLNWYQQKPGKAPKLLIYAASSLQSGVPSRFSGSGSGTDFTLTISSLQPEDFATYYCQQEYNTPPTFGGGTKVEIKRTVAAPSVFIFPPSDEQLKSGTASVVCLLNNFYPREAKVQWKVDNALQSGNSQESVTEQDSKDSTYSLSSTLTLSKADYEKHKVYACEVTHQGLSSPVTKSFNRGEC |
| 0.53 nM | 0.62 nM | 0.32 nM | 91% | 104 pM | 97% | 118 pM | 0.88 nM | 0.77 nM | no binding (tested: 25 nM) | 0.94 nM | 104% | 0.3 nM | ABP1 (antibody, human IgG4 S228P, kappa, Tetravalent monospecific (TM) format, N-terminal Fab: VH + IgG1 CH1 + GGGGS + VH + IgG4 S228P; heavy chain with or without C-terminal Lys; also called ABP1 IgG4 TM) heavy: QVQLQESGPGLVKPSETLSLTCAVSGYSISSGLGWGWIRQPPGKGLEWIGGIYESGSTYYNPSLKSRVTISVDTSKNQFSLKLSSVTAADTAVYYCAHERVRGYGDYGGHHAFDIWGQGTMVTVSSASTKGPSVFPLAPSSKSTSGGTAALGCLVKDYFPEPVTVSWNSGALTSGVHTFPAVLQSSGLYSLSSVVTVPSSSLGTQTYICNVNHKPSNTKVDKRVEPKSCGGGGSQVQLQESGPGLVKPSETLSLTCAVSGYSISSGLGWGWIRQPPGKGLEWIGGIYESGSTYYNPSLKSRVTISVDTSKNQFSLKLSSVTAADTAVYYCAHERVRGYGDYGGHHAFDIWGQGTMVTVSSASTKGPSVFPLAPCSRSTSESTAALGCLVKDYFPEPVTVSWNSGALTSGVHTFPAVLQSSGLYSLSSVVTVPSSSLGTKTYTCNVDHKPSNTKVDKRV[human IgG4 Fc with S228P (EU numbers) left out] light: [about 100 residues left out][about 120 residues left out] |
